Laboratory results reported in paper PMC10164576, “Interaction with the carboxy-terminal tip of SSB is critical for RecG function in E. coli” (Nucleic Acids Research, 2023).
Numbering of substitutions follows the chain as printed. These are yes or no findings as the source states them, for the method shown. Some entries that bind do so weakly or less than the wild type.

The chains behind the UniProt entries cited, without tags or fusion partners.
UniProt P0AGE0: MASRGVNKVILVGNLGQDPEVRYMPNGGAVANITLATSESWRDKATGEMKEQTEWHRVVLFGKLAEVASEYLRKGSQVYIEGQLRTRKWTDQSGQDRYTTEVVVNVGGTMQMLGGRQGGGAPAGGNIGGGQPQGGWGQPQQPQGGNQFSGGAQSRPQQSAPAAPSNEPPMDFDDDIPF

Key:
Test in all cases: two-hybrid; Gal4 DNA-binding domain (pGBD) and activation domain (pGAD) fusions in S. cerevisiae pJ69-4a; growth on SD His- and Ade-deficient plates, 30°C, 4-5 days
[1] = target: T1, RecG F97D Gal4 hybrid (E. coli) (UniProt P24230)
T1 sequence: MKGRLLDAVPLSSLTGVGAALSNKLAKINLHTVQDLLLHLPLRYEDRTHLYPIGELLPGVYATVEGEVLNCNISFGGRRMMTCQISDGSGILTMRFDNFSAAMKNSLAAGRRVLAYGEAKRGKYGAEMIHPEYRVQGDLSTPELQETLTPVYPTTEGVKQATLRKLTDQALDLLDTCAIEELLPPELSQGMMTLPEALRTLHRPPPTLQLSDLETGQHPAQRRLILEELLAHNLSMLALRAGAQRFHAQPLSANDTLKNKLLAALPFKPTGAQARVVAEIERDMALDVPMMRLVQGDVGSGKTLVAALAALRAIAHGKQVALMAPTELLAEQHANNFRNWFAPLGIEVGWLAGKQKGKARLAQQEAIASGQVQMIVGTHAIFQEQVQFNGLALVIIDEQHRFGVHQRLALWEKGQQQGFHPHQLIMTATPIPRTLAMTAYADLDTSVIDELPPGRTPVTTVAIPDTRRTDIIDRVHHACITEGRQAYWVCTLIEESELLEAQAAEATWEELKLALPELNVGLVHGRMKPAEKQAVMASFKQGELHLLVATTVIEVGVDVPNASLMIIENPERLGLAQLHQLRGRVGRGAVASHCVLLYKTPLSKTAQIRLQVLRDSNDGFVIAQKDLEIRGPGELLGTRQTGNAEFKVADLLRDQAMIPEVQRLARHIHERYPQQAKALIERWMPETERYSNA

[2] = target: T2, RecG Gal4 hybrid, wildtype (E. coli) (UniProt P24230)
T2 sequence: T1 sequence with D97F

[3] = target: T3, RecG R614E Gal4 hybrid (E. coli) (UniProt P24230)
T3 sequence: T1 sequence with D97F, R614E

binding [1]: binds
binding [2]: binds
binding [3]: no binding
Substance: SSB Gal4 hybrid (from UniProt P0AGE0 1-178)
